# The supplement of paper PMC8728848
# The list shows a part of the results.
# What was measured:
# Assay in all cases: glycan array binding signal (z-score within array); higher = stronger binding
# Details in all cases: glycan notation: IUPAC condensed, linker removed
# [1] = target: Neu5Ac(a2-3)Gal(b1-4)GlcNAc(b1-3)[Neu5Ac(a2-3)Gal(b1-4)GlcNAc(b1-6)]GalNAc
# In short: (§1)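 Glycan array data were curated from 3228 arrays in the Consortium for Functional Glycomics database and kept only where the protein sequence was available. Glycan names were converted to IUPAC-condensed notation, and columns mapping to the same glycan were averaged. The binding signal is a within-array Z-score, averaged across arrays of the same protein sequence at different concentrations or buffers and across linkers. Negative Z-scores can be read as non-binding.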
# [2] = target: Neu5Ac(a2-3)Gal(b1-4)GlcNAc(b1-6)GalNAc
# In short: as §1
# [3] = target: Neu5Ac(a2-3)Gal(b1-4)GlcNAc(b1-6)[Gal(b1-3)]GalNAc
# In short: as §1
# [4] = target: Neu5Ac(a2-3)Gal(b1-4)GlcNAc(b1-6)[Neu5Ac(a2-3)Gal(b1-3)]GalNAc
# In short: as §1
# [5] = target: Neu5Ac(a2-3)Gal(b1-4)GlcNAc6S
# In short: as §1
# [6] = target: Neu5Ac(a2-3)Gal(b1-4)[Fuc(a1-3)]GlcNAc
# In short: as §1
# [7] = target: Neu5Ac(a2-3)Gal(b1-4)[Fuc(a1-3)]GlcNAc(b1-2)Man
# In short: as §1
# [8] = target: Neu5Ac(a2-3)Gal(b1-4)[Fuc(a1-3)]GlcNAc(b1-3)Gal
# In short: as §1
# [9] = target: Neu5Ac(a2-3)Gal(b1-4)[Fuc(a1-3)]GlcNAc(b1-3)Gal(b1-4)GlcNAc
# In short: as §1
# [10] = target: Neu5Ac(a2-3)Gal(b1-4)[Fuc(a1-3)]GlcNAc(b1-3)Gal(b1-4)[Fuc(a1-3)]GlcNAc(b1-3)Gal(b1-4)[Fuc(a1-3)]GlcNAc
# In short: as §1
# [11] = target: Neu5Ac(a2-3)Gal(b1-4)[Fuc(a1-3)]GlcNAc(b1-3)GalNAc
# In short: as §1
# [12] = target: Neu5Ac(a2-3)Gal(b1-4)[Fuc(a1-3)]GlcNAc(b1-6)[Gal(b1-3)]GalNAc
# In short: as §1
# [13] = target: Neu5Ac(a2-3)Gal(b1-4)[Fuc(a1-3)]GlcNAc(b1-6)[Neu5Ac(a2-3)Gal(b1-3)]GalNAc
# In short: as §1
# [14] = target: Neu5Ac(a2-3)Gal(b1-4)[Fuc(a1-3)]GlcNAc6S
# In short: as §1
# [15] = target: Neu5Ac(a2-3)Gal6S(b1-4)GlcNAc
# In short: as §1
# [16] = target: Neu5Ac(a2-3)Gal6S(b1-4)[Fuc(a1-3)]GlcNAc
# In short: as §1
# Neu5Ac(a2-3)GalNAc = target: Neu5Ac(a2-3)GalNAc
# In short: as §1
# [17] = target: Neu5Ac(a2-3)GalNAc(b1-4)GlcNAc
# In short: as §1
# [18] = target: Neu5Ac(a2-3)[GalNAc(b1-4)]Gal(b1-4)Glc
# In short: as §1
# [19] = target: Neu5Ac(a2-3)[GalNAc(b1-4)]Gal(b1-4)GlcNAc
# In short: as §1
# [20] = target: Neu5Ac(a2-3)[GalNAc(b1-4)]Gal(b1-4)GlcNAc(b1-3)GalNAc
# In short: as §1
# [21] = target: Neu5Ac(a2-3)[Neu5Ac(a2-6)]GalNAc
# In short: as §1
# Neu5Ac(a2-6)Gal = target: Neu5Ac(a2-6)Gal
# In short: as §1
# [22] = target: Neu5Ac(a2-6)Gal(b1-3)GlcNAc(b1-3)[Gal(b1-4)GlcNAc(b1-6)]Gal(b1-4)Glc
# In short: as §1
# Neu5Ac(a2-6)Gal(b1-4)Glc = target: Neu5Ac(a2-6)Gal(b1-4)Glc
# In short: as §1
# [23] = target: Neu5Ac(a2-6)Gal(b1-4)GlcNAc
# In short: as §1
# [24] = target: Neu5Ac(a2-6)Gal(b1-4)GlcNAc(b1-2)Man
# In short: as §1
# [25] = target: Neu5Ac(a2-6)Gal(b1-4)GlcNAc(b1-2)Man(a1-3)Man(b1-4)GlcNAc(b1-4)GlcNAc
# In short: as §1
# [26] = target: Neu5Ac(a2-6)Gal(b1-4)GlcNAc(b1-2)Man(a1-3)[Gal(b1-4)GlcNAc(b1-2)Man(a1-6)]Man(b1-4)GlcNAc(b1-4)GlcNAc
# In short: as §1
# [27] = target: Neu5Ac(a2-6)Gal(b1-4)GlcNAc(b1-2)Man(a1-3)[GlcNAc(b1-2)Man(a1-6)]Man(b1-4)GlcNAc(b1-4)GlcNAc
# In short: as §1
# [28] = target: Neu5Ac(a2-6)Gal(b1-4)GlcNAc(b1-2)Man(a1-3)[GlcNAc(b1-4)][Neu5Ac(a2-6)Gal(b1-4)GlcNAc(b1-2)Man(a1-6)]Man(b1-4)GlcNAc(b1-4)GlcNAc
# In short: as §1
# [29] = target: Neu5Ac(a2-6)Gal(b1-4)GlcNAc(b1-2)Man(a1-3)[Man(a1-6)]Man(b1-4)GlcNAc(b1-4)GlcNAc
# In short: as §1
# [30] = target: Neu5Ac(a2-6)Gal(b1-4)GlcNAc(b1-2)Man(a1-3)[Neu5Ac(a2-3)Gal(b1-4)GlcNAc(b1-2)Man(a1-6)]Man(b1-4)GlcNAc(b1-4)GlcNAc
# In short: as §1
# [31] = target: Neu5Ac(a2-6)Gal(b1-4)GlcNAc(b1-2)Man(a1-3)[Neu5Ac(a2-6)Gal(b1-4)GlcNAc(b1-2)Man(a1-6)]Man(b1-4)GlcNAc(b1-4)GlcNAc
# In short: as §1
# [32] = target: Neu5Ac(a2-6)Gal(b1-4)GlcNAc(b1-2)Man(a1-3)[Neu5Ac(a2-6)Gal(b1-4)GlcNAc(b1-2)Man(a1-6)]Man(b1-4)GlcNAc(b1-4)[Fuc(a1-6)]GlcNAc
# In short: as §1
# [33] = target: Neu5Ac(a2-6)Gal(b1-4)GlcNAc(b1-2)Man(a1-6)Man(b1-4)GlcNAc(b1-4)GlcNAc
# In short: as §1
# [34] = target: Neu5Ac(a2-6)Gal(b1-4)GlcNAc(b1-2)Man(a1-6)[Gal(b1-4)GlcNAc(b1-2)Man(a1-3)]Man(b1-4)GlcNAc(b1-4)GlcNAc
# In short: as §1
# [35] = target: Neu5Ac(a2-6)Gal(b1-4)GlcNAc(b1-2)Man(a1-6)[GlcNAc(b1-2)Man(a1-3)]Man(b1-4)GlcNAc(b1-4)GlcNAc
# In short: as §1
# [36] = target: Neu5Ac(a2-6)Gal(b1-4)GlcNAc(b1-2)Man(a1-6)[Man(a1-3)]Man(b1-4)GlcNAc(b1-4)GlcNAc
# In short: as §1
# [37] = target: Neu5Ac(a2-6)Gal(b1-4)GlcNAc(b1-2)[Neu5Ac(a2-6)Gal(b1-4)GlcNAc(b1-4)]Man(a1-3)[GlcNAc(b1-4)][Neu5Ac(a2-6)Gal(b1-4)GlcNAc(b1-2)[Neu5Ac(a2-6)Gal(b1-4)GlcNAc(b1-6)]Man(a1-6)]Man(b1-4)GlcNAc(b1-4)GlcNAc
# In short: as §1
# [38] = target: Neu5Ac(a2-6)Gal(b1-4)GlcNAc(b1-2)[Neu5Ac(a2-6)Gal(b1-4)GlcNAc(b1-4)]Man(a1-3)[GlcNAc(b1-4)][Neu5Ac(a2-6)Gal(b1-4)GlcNAc(b1-4)Man(a1-6)]Man(b1-4)GlcNAc(b1-4)GlcNAc
# In short: as §1
# [39] = target: Neu5Ac(a2-6)Gal(b1-4)GlcNAc(b1-2)[Neu5Ac(a2-6)Gal(b1-4)GlcNAc(b1-6)]Man(a1-6)[Neu5Ac(a2-6)Gal(b1-4)GlcNAc(b1-2)Man(a1-3)][GlcNAc(b1-4)]Man(b1-4)GlcNAc(b1-4)GlcNAc
# In short: as §1
# [40] = target: Neu5Ac(a2-6)Gal(b1-4)GlcNAc(b1-3)Gal(b1-3)GlcNAc
# In short: as §1
# [41] = target: Neu5Ac(a2-6)Gal(b1-4)GlcNAc(b1-3)Gal(b1-4)GlcNAc
# In short: as §1
# [42] = target: Neu5Ac(a2-6)Gal(b1-4)GlcNAc(b1-3)Gal(b1-4)GlcNAc(b1-2)Man(a1-3)[Neu5Ac(a2-6)Gal(b1-4)GlcNAc(b1-3)Gal(b1-4)GlcNAc(b1-2)Man(a1-6)]GalNAc
# In short: as §1
binder,measurement,setting,value
DC-ASGPR S+GEE (Homo sapiens) (protein) MTRTYENFQYLENKVKVQGFKNGPLPLQSLLQRLRSGPCHLLLSLGLGLLLLVIICVVGFQNSKFQRDLVTLRTDFSNFTSNTVAEIQALTSQGSSLEETIASLKAEVEGFKQERQAVHSEMLLRVQQLVQDLKKLTCQVATINNNGEEASTEGTCCPVNWVEHQDSCYWFSHSGMSWAEAEKYCQLKNAHLVVINSREEQNFVQKYLGSAYTWMGLSDPEGAWKWVDGTDYATGFQNWKPGQPDDWQGHGLGGGEDCAHFHPDGRWNDDVCQRPYHWVCEAGLGQTSQESH,glycan array binding signal (z-score),[1],-0.482
same,glycan array binding signal (z-score),[2],4.38
same,glycan array binding signal (z-score),[3],-0.352
same,glycan array binding signal (z-score),[4],-0.271
same,glycan array binding signal (z-score),[5],-0.333
same,glycan array binding signal (z-score),[6],-0.32
same,glycan array binding signal (z-score),[7],-0.291
same,glycan array binding signal (z-score),[8],-0.389
same,glycan array binding signal (z-score),[9],-0.326
same,glycan array binding signal (z-score),[10],-0.291
same,glycan array binding signal (z-score),[11],-0.143
same,glycan array binding signal (z-score),[12],-0.338
same,glycan array binding signal (z-score),[13],-0.265
same,glycan array binding signal (z-score),[14],-0.352
same,glycan array binding signal (z-score),[15],-0.32
same,glycan array binding signal (z-score),[16],-0.314
same,glycan array binding signal (z-score),Neu5Ac(a2-3)GalNAc,0.029
same,glycan array binding signal (z-score),[17],-0.206
same,glycan array binding signal (z-score),[18],1.02
same,glycan array binding signal (z-score),[19],0.566
same,glycan array binding signal (z-score),[20],0.224
same,glycan array binding signal (z-score),[21],-0.339
same,glycan array binding signal (z-score),Neu5Ac(a2-6)Gal,-0.325
same,glycan array binding signal (z-score),[22],-0.355
same,glycan array binding signal (z-score),Neu5Ac(a2-6)Gal(b1-4)Glc,-0.322
same,glycan array binding signal (z-score),[23],-0.313
same,glycan array binding signal (z-score),[24],-0.319
same,glycan array binding signal (z-score),[25],-0.345
same,glycan array binding signal (z-score),[26],-0.301
same,glycan array binding signal (z-score),[27],-0.263
same,glycan array binding signal (z-score),[28],-0.325
same,glycan array binding signal (z-score),[29],-0.375
same,glycan array binding signal (z-score),[30],-0.343
same,glycan array binding signal (z-score),[31],-0.214
same,glycan array binding signal (z-score),[32],-0.339
same,glycan array binding signal (z-score),[33],-0.301
same,glycan array binding signal (z-score),[34],-0.355
same,glycan array binding signal (z-score),[35],-0.093
same,glycan array binding signal (z-score),[36],-0.301
same,glycan array binding signal (z-score),[37],-1.23
same,glycan array binding signal (z-score),[38],-0.321
same,glycan array binding signal (z-score),[39],-0.317
same,glycan array binding signal (z-score),[40],-0.335
same,glycan array binding signal (z-score),[41],-0.326
same,glycan array binding signal (z-score),[42],-0.238
